System: patients with treatment-resistant major depressive disorder (TRD)
Test: Phase 1/2 clinical trial of inhaled 5-MeO-DMT, safety and tolerability
Details: Part A, in both groups (12 mg and 18 mg)

COc1ccc2[nH]cc(CCN(C)C)c2c1 [5-MeO-DMT]
patients with at least one ADR: 3 of 4
